The labels stand for the following.
B1: CPEB3 Ribozyme (parent)
chain: UAACAGGGGGCCACAGCAGAAGCGUUCACGUCGCAGCCCCUGUCAGAUUCUGGUGAAUCUGCGAAUUCUGCUGUAUAUCUC

The source gives no read counts; variants with many changes may rest on few reads.

The variants in this series derive from B1. In words: self-cleavage, relative activity (ratio to wild type); higher = more cleavage; in vitro, sequencing. The method in brief:
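Barcoded CPEB3 ribozyme mutants, produced by rounds of error-prone PCR, self-cleaved while being transcribed with T7 RNA polymerase for 5 hours at 37°C and during a subsequent 15 min DNase I step before EDTA was added. Sequencing of template-switched cDNA on Illumina gave cleaved and total reads, and DNA sequencing assigned barcodes to variants. Each variant's relative activity is its cleaved/total read fraction divided by the unmutated ribozyme's fraction, averaged across three batches. A variant needed a minimum of 5 reads.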
For UAACAAGGGGCCACAGCAGAAGCGUUCACGUCGCAGCCCCUGCCAGAUUCUGGUGAAUCUGCGAAUUCUGCAGUAUACCUC [G6A U43C U72A U78C], the self-cleavage is 0.06.
As for UAACAUGGGGCCACUGCAGAAGCGUUCACGUCGCAGCCCCUGUCAGAUUCUGGUGAAUCUGCGAAUACUGCUGUAUAUCUC [G6U A15U U67A], the self-cleavage was found to be 0.06.
Turning to UAACAAGGGGCCACAGCAGAAGCGUUCACGUCGCAGCCCCUGUCAGAUUCCGGUGAAUCUGCGAAUUCUGCUGUACAUCUC [G6A U51C U76C], the self-cleavage came to 0.41.
The value for UAACACGGGGCCACAGCAGAAGCGUUCACGUCGCAGCCCCUAUCAGAUUCCGGUGAAUCUGUGAAUUCUGCUGUAUAUCUC [G6C G42A U51C C62U] was 0.53.
In the case of UAACAAGGGGCCACAGCAGAAGCGUUCACGGCGCAGCCCCUGUCAGAUUCUGGUGAAUCUGCGUAUUCUGCUGUAUAUCUC [G6A U31G A64U] it was 0.19.
Consider UAACAAGGGGCCACAGCAGAAGCGUUCACGUCGCAGCCCCUGACAGAUUCUGGUGAAUCUGCGAACUCUGCUGUAUACCUC [G6A U43A U66C U78C], for which the self-cleavage was determined as 0.1.
In the case of UAACACGGGGCCACAGCAGAAGCGCUCAUGUCGCAGCCCCUGUCAGAUUCUGGUGAAUCUGCGAAUUAUGCUGCAUAUCUC [G6C U25C C29U C68A U74C] it was 0.24; in that of UAACACGCACCCACAGCAGAAGCGUUCGCGUCGCUGCCCCUGUCAGAUUCUGGCGAAUCUGCGAAUUCUGCUGUAUAUCUC [G6C G8C G9A G10C A28G A35U U54C], 0.34; in that of UAACACGGGGCCACAGCAGAAGCGUUCACGUCGCAGCCCCCGUCAGAUUCUGGUGAAUCUGCGAAUCCUGCUGUAUAUCUC [G6C U41C U67C], 0.15.
The value for UAACAAGGGGCCACAGCAGAAGCGUUCACGUCGCAGCCCCUGUCAGAUUCAGGUGAGUCUGCGAAUUCUGCUGUAUAUCUC [G6A U51A A57G] was 0.18; that for UAACAUGGGGCCACGGGAGAAGCGUUCCCGUCGCAGCCCCUGUCAGAUUCUGGUGAAUCUGCGAAUUCUGCUGUACAUCUC [G6U A15G C17G A28C U76C] was 0.42.
In the case of UAACAAGGGGCCACAGCAGAAGCGUUCACGUCGCAGCCCCUGCCAGAUUCAGGUGAAUCUGCGAAUUCUGCUGUAUAUCUC [G6A U43C U51A] it was 0.23; in that of UAACAAGGGGCCACAGCAGAAGCGUUCACGUCGCAGCCCCUGUCAGACUCUGGUGAAUCUGCGAAUUCUGCUGUAUGUCUC [G6A U48C A77G], 0.49; in that of UAACAAGGGGCCACAGCAGAAGCGUUCACGACGCAGCCCCUGUCAGAUUCUGGUGAAUCUGCGAAUUCUGCAGUAUAUCUC [G6A U31A U72A], 0.21.
For the variant UAACACGGGGCCACAGCAGAAGCGCACACGCCGCAGCCCCUGUCAGGUUCUGGUGAAUCUGCGAAUUCUGCUGUAUAUCCC [G6C U25C U26A U31C A47G U80C], the self-cleavage worked out at 0.21.
Turning to UAACAUGGGGCCACAGCGGAAGCGUUCACGUCGCUGCCCCUGUCAGAUUCUGGUGAAUCUGCGAAUUCUGCUGUAUAUCUC [G6U A18G A35U], the self-cleavage turned out to be 0.16.
In the case of UAACACAGGGCCACAGCAGAAGCGUUCACGUCGCGGCCCCUGUCAGAUUCUGGUGAAUCUGCGAAUCCCGUUGUAUAUCUC [G6C G7A A35G U67C U69C C71U] it was 0.05; in that of UAACACGGGGCCACAGCAGAAGCGACUACGUCGCAGCCCCUGUCCGAUUCUGGUGAAUCUGCGAACUCAGCUGUAUAUCUC [G6C U25A U26C C27U A45C U66C U69A], 0.07; in that of UAACAAGGGGCCACAGCAGAAGCGUUCACGUCGCAGCCCCUGUCAGAUUCUGGUGAAUCAGCGAAUUCUGAUGUAUAUCUC [G6A U60A C71A], 0.04.
In the case of UAACACGGGGCCACAGCAGAAGCGAUCACGUCGCAGCCCCUGUCAGAAUCUGGUGAAUCUGUGAAUUCUGCUGUAUAUCUC [G6C U25A U48A C62U] it was 0.33; in that of UAACAAGGGGCCACAGCAGAAGCGUUCACGUCGCAGCCCCCGUCAGAUUCUGGAGAAUCUGCGAACUCUGCUGUAUAUCUC [G6A U41C U54A U66C], 0.21.
With UAACAUGGGGCCACGGGAGAAGCGUACACGUCGCAACCCCAGUCAGAUUCUGGUGAAUCUGCGAAUUCUGCUGUAUAUCUC [G6U A15G C17G U26A G36A U41A], the self-cleavage turned out to be 0.05.
The value for UAACAAGGGGCCACAGCAGAAGCGUUCACGUCGCAGCCCCUGCCAGAUUCCGGUGAAUCUGCGAAUUCCGCUGUAUAUCUC [G6A U43C U51C U69C] was 0.28; that for UAACAAGGGGCCACAGCAGAAGCGUUCACGUCGCAGCCCCUGGCAGAAUCUGGUGAAUCUGCGAAUUCAGCUGUAUAUCUC [G6A U43G U48A U69A] was 0.2; that for UAACAAGGGGCCACAGCAGAAGCGUUCACGCCGCUGCCCGUGUCAGAUUCUGGUGAAACUGCGAAUUCUGCUGUAUAUCUC [G6A U31C A35U C40G U58A] was 0.07.
The value for UAACACGGGGCCACAGCAGAAGCGCUCACGUCGCAGCCCCUGUCAGAUUCUGGUGAAUCUGCGAAUCCUGCUGUAUAUCUC [G6C U25C U67C] was 0.26; that for UAACACGGGGCCACAGCAGGAGCGUACACGCCGCAGCCCCUGACAGAUUCUGGUGAAUCAGCGAAUUCCGCUGUAUAUCUC [G6C A20G U26A U31C U43A U60A U69C] was 0.05; that for UAACAAGGGGCCACAGCAGAAGCGUUCACGUCGCAGCCCCCGUCAGAUUCUGGUGAACCUGCGAAUUCUGCUGUAUAUCUC [G6A U41C U58C] was 0.06.
As to UAACAUGGGGCCACGGCAGAAGCGUUCACGUCGCAGCCCCUGUCAGAUUCUGGUGAAUCUGCGAAUUCUGCUGUAUUUCUC [G6U A15G A77U], the self-cleavage amounted to 0.13.
The value for UAACAUGGGGCCACGGCAGAAGCGUUCACGUCGCGGCCCCUGUCAGAUUCUGGUGAAUCCGCGAAUUCUGCUGUAUAUCUC [G6U A15G A35G U60C] was 0.58; that for UAACAUGGGGCCACGGCCGAGGCGUUCACGUCGCAGCCCCUGUCAGAUUCUGGUGAAUCUGCGGAUUCUGCUGUAUAACUC [G6U A15G A18C A21G A64G U78A] was 0.04.
The value for UAACAAGGGGCCACAGCAGAAGCGUUCACGUCGCAGCCCCCGUCAGAUUCUGGUGAAUCUGCGAAUUCUGCUGUAUAUCCC [G6A U41C U80C] was 0.19.
In the case of UAACACGGCGCCACAGCAGAAGCGUUCACGUCGCAGCCCUUGUCAGAUUCUGGUGAAUCUGCGAACUCUGCUGUAUACCUC [G6C G9C C40U U66C U78C] it was 0.11.
For the variant UAACAAGGGGCCACAGCAGAAGCGUUCACGUCGCAGCCCCCGUCAGGUUAUGGUGAAUCCGCGAAUUCUGCUGUAUAUCUC [G6A U41C A47G C50A U60C], the self-cleavage was 0.18.

These data come from the RNAGym collection of RNA variant scans (doi:10.1093/nar/gkz1192).
